Reference: PubChem BioAssay AID504832 (National Center for Advancing Translational Sciences (NCATS), 2011)
Among all 310,000 compounds or so, about 18,000 (5.8%) were called active. The shares of active, inactive and inconclusive entries below differ from those in the screen. The call rests on the fitted dose curve; in most records, active means well fitted inhibition curve with a large enough effect; inconclusive means small, poorly fitted or top-dose-only effect, or another doubt; inactive means no such curve, though single readings can be large or run the other way. Potencies of inconclusive entries are left out as doubtful fits.

assay: Primary qHTS for delayed death inhibitors of the malarial parasite plastid, 48 hour incubation; settings: P. falciparum luciferase growth in erythrocytes; series mostly up to 28.7 µM
Method in brief: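 First compound was added to culture medium, then infected red cells at 0.1% parasitemia and 2% hematocrit (final). After incubation at 37 C under 5% CO2, luciferase detection reagent was dispensed and light output recorded.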
On the % scale 0 is the no-effect control and ±100 the full control effect; potency means the concentration at half of the fitted maximal effect; tags describe the fitted curve by direction and shape.

Structure (SMILES) | Potency | activity change, negative = inhibition
COc1ccccc1-n1c(SCC(=O)Nc2nnc(C)s2)nc2c(c1=O)SCC2 | inactive | 
COc1ccc(C(=O)c2sc3nc(C)cc(-c4cccs4)c3c2N)cc1OC | inconclusive [inhibitor, single point] | 
Cc1ccc(C(=O)NCC2(c3ccccc3)CCCC2)cc1 | inconclusive [inhibitor, full curve] | 
Cc1ccc(S(=O)(=O)Nc2cc(C)cn(Cc3ccccc3)c2=O)cc1 | inconclusive [inhibitor, partial curve] | 
Cc1ccc(S(=O)(=O)Nc2cc(C(F)(F)F)ccc2N2CCOCC2)cc1 | inconclusive [inhibitor, single point] | 
CCOC(=O)c1ccc2c(c1)N(CC)C(=O)c1ccccc1S2 |  | inactive: 2.06% [at 0.00184 µM]
c1ccc2c(c1)OC(CCCN1CCCCC1)c1ccccc1S2 (stereo not given) | active: 13.1 µM | 
CC1C(=O)N(c2ccc(S(=O)(=O)N(C)C)cc2)C1(/C=C/c1ccccc1)C(=O)NC1CCCC1 (stereo not given) | active: 9.28 µM | 
COc1ccccc1CNS(=O)(=O)c1ccc2c(c1)CC(=O)N2C | inconclusive [inhibitor, partial curve] | 
C/C(=N\NC(=O)c1cccc(S(=O)(=O)N2CCCC2)c1)c1ccncc1 | inconclusive [inhibitor, single point] | 
Cc1ccc(-c2onc3ccc(C(=O)/C=C/N(C)C)cc23)cc1 | inconclusive [inhibitor, single point] | 
COc1ccc(OCC(=O)NNC(=O)c2ccccn2)cc1 | inconclusive [inhibitor, single point] | 
CCOc1ccc(NC(=O)C2(c3ccc(OC)c(OC)c3)CCCC2)cc1 | inconclusive [inhibitor, partial curve] | 
Cc1cc(-c2nnc(CCC(=O)N(C)CCc3ccccc3)o2)no1 | inactive | 
CCC1CCCCN1CCCNC(=O)CN1C(=O)c2cccnc2Oc2ccc(C)cc21 (stereo not given) | inactive | 
O=C(Nc1ccccc1)Nc1ccc2snnc2c1 | inconclusive [inhibitor, single point] | 
CCCN1C(=O)N(c2cccc(C)c2)C(C)(O)CC1(C)C (stereo not given) | inactive | 
CC(=O)Nc1ccc(S(=O)(=O)NCC2CCC(C(=O)N3CC(C)CC(C)C3)CC2)cc1 (stereo not given) | inconclusive [inhibitor, single point] | 
COc1ccc(C(=O)COC(=O)CCNS(=O)(=O)c2ccccc2)c(OC)c1 | inactive | 
CC(=O)Nc1nc(C)cs1 | inconclusive [inhibitor, single point] | 
COc1ccc(C2/C=C\CN(C(=O)c3ccc(C)cc3)[C@H](Cc3ccccc3)C(=O)N2Cc2ccc(F)cc2)cc1 (stereo not given in full) | active: 4.15 µM | 
C=CCSc1nc(=O)n2ccc(C)cc2n1 | inactive | 
CCc1ccccc1Nc1nc(N)nc(COC(=O)C2CCN(C(=O)c3ccc(F)cc3)CC2)n1 | active: 11.7 µM | 
CC[N+]1=CN(c2ccccc2)C(C)=CC1(C)C | inconclusive [inhibitor, partial curve] | 

Structure (SMILES) | Potency | activity change, negative = inhibition
CCc1ccc(C2(C)SC(NC(C)=O)=NN2C(C)=O)cc1 (stereo not given) | inconclusive [inhibitor, partial curve, poor fit] | 
COc1ccc(OC)c(N(CC(=O)N2CCC(C)CC2)S(=O)(=O)c2ccccc2)c1 | inconclusive [inhibitor, single point] | 
Cc1cccc(NS(=O)(=O)c2cccc(C(=O)NNC(=O)c3ccccc3O)c2)c1 | inconclusive [inhibitor, single point] | 
CCN(c1ccccc1)S(=O)(=O)c1ccc(NC(=S)NC(=O)c2cccs2)cc1 | inconclusive [inhibitor, full curve] | 
CC1CCCC(C)N1C(=O)COc1ccc(C(=O)Nc2ccccc2N2CCOCC2)cc1 (stereo not given) | inconclusive [inhibitor, partial curve] | 
COc1cccc(C2NC(=O)NC(C)=C2C(=O)OCC2CCCCC2)c1 (stereo not given) | inconclusive [inhibitor, full curve, poor fit] | 
O=C(COC(=O)c1ccc2c(c1)S(=O)(=O)N=C1CCCCCN12)NCCc1ccc(F)cc1 | inactive | 
CCCN1CCC(Oc2cccc(C(=O)NCCc3ccccc3)c2)CC1 | inconclusive [inhibitor, single point] | 
Cn1c(=O)[nH]c(=O)c2c1nc(CN1CCN(c3ccccc3F)CC1)n2CCc1ccccc1 | inconclusive [inhibitor, single point] | 
O=C(CCC1CCCN(C(=O)c2ccc3cc[nH]c3c2)C1)N1CCN(c2ccccn2)CC1 (stereo not given) | inconclusive [inhibitor, partial curve] | 
COc1ccc(Nc2nnc(-c3ccccc3)c3ccccc23)cc1C(=O)N1CCCCC1 | active: 9.28 µM | 
O=C(NCc1ccco1)c1cc(-c2cccs2)nc2ccccc12 | inconclusive [inhibitor, single point] | 
CCCn1c(SCC(=O)Nc2ccc(NC(C)=O)cc2)nc2c1c(=O)n(C)c(=O)n2C | inactive | 
CCc1ccc2[nH]c(=O)c(CN(CCN(C)C)C(=S)NCc3ccco3)cc2c1 | inconclusive [inhibitor, partial curve] | 
Cc1ccc(S(=O)(=O)c2nc(N3CCOCC3)sc2Cl)cc1 | inconclusive [inhibitor, single point] | 
CN(CC(=O)Nc1ccccc1C(=O)NC1CC1)Cc1ccc(Cl)cc1 | inconclusive [inhibitor, single point] | 
CC(=O)c1ccc(NC(=O)CN2CCOCC2)cc1 | inactive | 
Cc1c(C(=O)NC(C)C)sc2ncn(CC(=O)N3CCC(C)CC3)c(=O)c12 | inactive | 
CCN1CCN(c2ccc(NC(=O)c3ccc(OC)c(S(=O)(=O)N4CCCC4)c3)cc2)CC1 | inactive | 
NC(=O)c1ccc(NC(=O)c2ccc(COc3ccccc3Br)cc2)cc1 | inactive | 
O=C(Oc1ccc[nH]c1=O)c1cc([N+](=O)[O-])cc([N+](=O)[O-])c1 | inconclusive [inhibitor, single point] | 
O=C(c1ccccc1)N1CCN(C(=O)c2cc3nc(-c4ccccc4)cc(C(F)(F)F)n3n2)CC1 | inconclusive [inhibitor, partial curve] | 
O=S(=O)(N/N=C/c1ccc2c(c1)OCCO2)c1ccccc1 | inactive | 
Cc1cccc(C)c1NC(=O)CN(C)C(=O)CC1CC2CCC1C2 (stereo not given) | inactive | 

Structure (SMILES) | Potency | activity change, negative = inhibition
CN(C)c1ccc(C(CNC(=O)COc2ccc(Cl)cc2)N2CCCC2)cc1 (stereo not given) | inactive | 
C=CCNCC(=O)N1N=C(c2ccc3ccccc3c2)CC1c1ccc(OC)cc1 (stereo not given) | inconclusive [inhibitor, single point] | 
O=C(NNc1ncc(C(F)(F)F)cc1Cl)c1c(Cl)cccc1Cl | inconclusive [inhibitor, full curve] | 
CCOC(=O)N/N=C/c1ccc(OCCSc2ccc(Cl)cc2)c(OCC)c1 | active: 1.85 µM | 
COCCN(C(=O)COC(=O)c1oc2ccc(OC)cc2c1C)c1c(N)n(Cc2ccccc2)c(=O)[nH]c1=O | inconclusive [inhibitor, single point] | 
COc1cccc(Cn2c(C3CC3)nc3ccc(NC(=O)c4ccco4)cc3c2=O)c1 | active: 3.7 µM | 
Cc1ccc(SCC(=O)Nc2ccc(N3CCOCC3)cc2)cc1C | inconclusive [inhibitor, single point] | 
O=CN1CCN(S(=O)(=O)c2ccc(S(=O)(=O)NC3CCCCC3)cc2)CC1 | inactive | 
CN(c1ccccc1)S(=O)(=O)c1cccc(C(=O)Nc2cccc(C(=O)NC3CC3)c2)c1 | active: 5.22 µM | 
Cc1ccc(C(=O)NC(=S)Nc2cccc3c(C)cc(C)nc23)cc1 | inconclusive [inhibitor, single point] | 
CCN1C(=O)c2ccccc2Sc2ccc(C(=O)NC(C)C)cc21 | inactive | 
Cc1cc(C(=O)NCC(=O)OC(C)C(=O)N2CCOCC2)ccc1[N+](=O)[O-] (stereo not given) | inconclusive [inhibitor, single point] | 
Cc1ccc(N2C(=O)NC(NS(=O)(=O)c3ccccc3)(C(F)(F)F)C2=O)cc1C (stereo not given) | inactive | 
Cc1ccc(S(=O)(=O)N2CCN(C)CC2)cc1-c1nnc2c3ccccc3c(C)nn12 | inconclusive [inhibitor, single point] | 
CC1(c2ccccc2Br)NC(=O)N(CC(=O)NC2CCCCC2)C1=O (stereo not given) | inconclusive [inhibitor, partial curve] | 
COc1ccc2oc(=O)c(-c3csc(Nc4cccc(O)c4)n3)cc2c1 | inactive | 
COc1cc(C2C(C#N)=C(N)N(Nc3ccccc3)C3=C2C(=O)CC(C)(C)C3)ccc1OCc1cccc(F)c1 (stereo not given) | inconclusive [inhibitor, partial curve] | 
Cc1nc(SCC(=O)NC2CCCCC2C)c(C#N)c(C)c1C (stereo not given) | inconclusive [inhibitor, partial curve, poor fit] | 
Cc1ccc(C2c3c(oc4cc(C)c(C)cc4c3=O)C(=O)N2CCCN2CCOCC2)cc1 (stereo not given) | active: 5.22 µM | 
COc1ccc(C(=O)Nc2ccc(C(=O)OCC(=O)c3cccc4ccccc34)cc2)cc1 | inconclusive [inhibitor, partial curve, poor fit] | 
CCCCCn1c(CN2CCN(Cc3ccccc3)CC2)nc2c1c(=O)n(C)c(=O)n2C | active: 8.28 µM | 
COc1ccc(NC(=O)Nc2nnc(N3CCCCC3C)s2)cc1OC (stereo not given) | inconclusive [inhibitor, single point] | 
